Drawing on article PMC10630320, this text covers binding for five molecules.

The chains behind the UniProt entries cited, without tags or fusion partners. Where a name states a change or a piece, a line headed by the entry shows the natural chain unless it says otherwise. A line that says so, or that is headed by a name, gives the form on record, which may keep a tag or linker. Residues count along the entry.
UniProt Q96ES7: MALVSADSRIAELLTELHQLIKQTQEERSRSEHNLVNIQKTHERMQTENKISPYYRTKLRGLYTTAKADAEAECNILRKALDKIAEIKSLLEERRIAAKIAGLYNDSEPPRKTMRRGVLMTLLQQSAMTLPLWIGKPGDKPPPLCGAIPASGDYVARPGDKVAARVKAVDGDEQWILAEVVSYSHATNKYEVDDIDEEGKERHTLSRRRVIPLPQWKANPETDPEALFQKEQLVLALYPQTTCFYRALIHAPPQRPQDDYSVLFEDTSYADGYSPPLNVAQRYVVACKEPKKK
SGF29-C-WT: residues 54-293 of Q96ES7
SGF29-C-D194A (Q96ES7, form named): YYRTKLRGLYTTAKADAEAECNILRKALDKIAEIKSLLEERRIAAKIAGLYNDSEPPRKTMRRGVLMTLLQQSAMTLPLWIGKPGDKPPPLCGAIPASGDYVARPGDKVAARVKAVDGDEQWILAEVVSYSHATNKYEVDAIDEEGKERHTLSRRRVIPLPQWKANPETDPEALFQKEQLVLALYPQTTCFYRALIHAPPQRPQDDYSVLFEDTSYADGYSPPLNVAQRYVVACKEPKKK
UniProt P08047: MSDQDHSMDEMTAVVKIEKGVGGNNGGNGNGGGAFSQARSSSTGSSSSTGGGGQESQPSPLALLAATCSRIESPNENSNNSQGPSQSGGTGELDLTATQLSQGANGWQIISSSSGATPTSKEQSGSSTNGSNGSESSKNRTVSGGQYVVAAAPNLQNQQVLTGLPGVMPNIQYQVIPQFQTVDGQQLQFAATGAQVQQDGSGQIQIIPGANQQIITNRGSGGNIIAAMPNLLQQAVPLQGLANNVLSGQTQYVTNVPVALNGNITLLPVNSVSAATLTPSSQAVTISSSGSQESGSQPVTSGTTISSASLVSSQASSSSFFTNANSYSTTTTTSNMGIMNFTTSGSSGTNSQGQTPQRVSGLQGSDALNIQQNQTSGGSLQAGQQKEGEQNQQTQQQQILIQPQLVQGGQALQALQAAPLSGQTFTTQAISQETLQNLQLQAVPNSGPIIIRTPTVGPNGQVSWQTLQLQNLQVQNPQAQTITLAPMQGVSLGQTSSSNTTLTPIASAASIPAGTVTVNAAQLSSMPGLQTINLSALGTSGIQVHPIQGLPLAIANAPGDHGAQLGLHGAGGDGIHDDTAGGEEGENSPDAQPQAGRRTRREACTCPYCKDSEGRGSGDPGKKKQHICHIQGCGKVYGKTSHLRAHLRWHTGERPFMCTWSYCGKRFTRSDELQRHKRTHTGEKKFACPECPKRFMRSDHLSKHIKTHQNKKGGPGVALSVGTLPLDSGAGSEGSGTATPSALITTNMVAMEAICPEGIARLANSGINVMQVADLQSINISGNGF
UniProt O75528: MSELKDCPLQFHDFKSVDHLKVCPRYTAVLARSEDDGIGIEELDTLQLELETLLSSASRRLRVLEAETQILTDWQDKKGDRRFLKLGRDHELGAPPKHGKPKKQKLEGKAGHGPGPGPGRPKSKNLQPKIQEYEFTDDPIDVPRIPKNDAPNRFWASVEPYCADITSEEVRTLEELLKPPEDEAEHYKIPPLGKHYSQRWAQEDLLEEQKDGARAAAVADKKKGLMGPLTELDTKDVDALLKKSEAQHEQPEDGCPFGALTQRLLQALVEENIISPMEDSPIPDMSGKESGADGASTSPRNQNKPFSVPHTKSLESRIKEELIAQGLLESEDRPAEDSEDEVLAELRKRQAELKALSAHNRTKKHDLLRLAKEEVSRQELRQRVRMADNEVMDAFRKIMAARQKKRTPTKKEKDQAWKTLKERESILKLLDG
UniProt Q92830: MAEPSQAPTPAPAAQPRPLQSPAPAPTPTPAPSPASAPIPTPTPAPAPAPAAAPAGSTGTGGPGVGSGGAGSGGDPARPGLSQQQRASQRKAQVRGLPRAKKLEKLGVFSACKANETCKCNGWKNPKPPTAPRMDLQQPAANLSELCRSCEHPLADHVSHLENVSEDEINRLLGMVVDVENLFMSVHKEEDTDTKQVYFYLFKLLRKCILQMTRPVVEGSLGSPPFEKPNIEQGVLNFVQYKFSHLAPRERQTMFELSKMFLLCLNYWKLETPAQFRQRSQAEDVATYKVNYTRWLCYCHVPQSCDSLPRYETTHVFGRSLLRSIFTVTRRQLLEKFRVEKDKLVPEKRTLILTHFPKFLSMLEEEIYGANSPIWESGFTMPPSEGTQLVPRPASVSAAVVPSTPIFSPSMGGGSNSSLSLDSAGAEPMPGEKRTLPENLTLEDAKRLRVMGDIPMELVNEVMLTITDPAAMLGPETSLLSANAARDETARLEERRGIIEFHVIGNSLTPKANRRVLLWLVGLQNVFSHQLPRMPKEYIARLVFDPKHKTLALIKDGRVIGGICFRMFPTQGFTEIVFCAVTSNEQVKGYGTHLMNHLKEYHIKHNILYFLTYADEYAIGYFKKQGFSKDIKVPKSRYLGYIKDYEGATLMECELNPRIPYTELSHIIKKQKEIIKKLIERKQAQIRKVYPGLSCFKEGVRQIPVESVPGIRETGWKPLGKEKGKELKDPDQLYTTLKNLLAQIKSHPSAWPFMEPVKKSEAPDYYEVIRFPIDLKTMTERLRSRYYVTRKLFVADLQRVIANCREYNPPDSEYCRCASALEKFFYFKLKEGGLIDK

Assay [1] addresses T1, mediator of RNA polymerase II transcription subunit 4 (MED4) (human (endogenous in HEK293T)) (UniProt Q9NPJ6).
T1 sequence: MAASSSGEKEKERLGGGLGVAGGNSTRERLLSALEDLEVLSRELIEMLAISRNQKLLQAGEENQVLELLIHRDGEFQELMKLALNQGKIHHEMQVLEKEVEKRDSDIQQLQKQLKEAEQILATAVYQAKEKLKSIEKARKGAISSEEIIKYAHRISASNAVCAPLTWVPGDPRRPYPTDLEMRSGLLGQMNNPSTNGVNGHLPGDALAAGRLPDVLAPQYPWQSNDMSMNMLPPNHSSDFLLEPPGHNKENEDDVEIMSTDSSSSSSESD
The experiment in a line: co-IP; reverse co-IP using MED4 antibody for immunoprecipitation; endogenous proteins.

The next assay deals with SGF29-C-D194A (human) (UniProt Q96ES7). The assay can be described thus: co-sedimentation; pelleting assay: purified His-tagged SGF29-C variants added into soluble nuclear extract in vitro; droplet pellets analysed by western blot; only the target purified. (In general: Immunoblotting shows a protein as a band on a membrane.)
The target of the next assay is SGF29-C-WT (human) (UniProt Q96ES7). The assay is described as above.
Assay [2] has as its target Flag-EGFP-SGF29-R207P (human) (UniProt Q96ES7). The assay can be described thus: co-IP; anti-Flag M2 affinity gel on lysates in 0.3% CHAPS, 40 mM HEPES pH 7.5, 1 mM EDTA, 120 mM NaCl, 4 °C overnight; elution with Flag peptides; immunoblot of endogenous partners; methods: transfected HEK293T, legend of Fig. 5d: hMPCs.
In assay [3] the target is Flag-EGFP-SGF29-WT (human) (UniProt Q96ES7). The description is as above.
Assay [4] deals with Flag-EGFP-SGF29-R207P (human) (UniProt Q96ES7). The description is as above. The source holds these as a separate data set.
Assay [5] deals with Flag-EGFP-SGF29-WT (human) (UniProt Q96ES7). Described as above. The source holds these as a separate data set.

Read-outs that look alike come from different tables or passages of the source. These are yes or no findings as the source states them, for the method shown. Binding seen in cells or lysates may run through a third protein. Some entries that bind do so weakly or less than the wild type.

On to “Transcription factor SP1 (from UniProt P08047 1-785)”, for which the binding entry in assay [1] is given as “binds”; with SGF29-C-D194A (human) it was “binds”; with SGF29-C-WT (human), “binds”; in assay [2], “no binding”; in assay [3], “binds”.
Turning to ADA3 (from UniProt O75528 1-432), the binding result in assay [2] and in assay [3] was “binds” throughout.
For the molecule “KAT2A (GCN5) (from UniProt Q92830 1-837)”, the binding entry in assay [2] and in assay [3] was “binds” each time.
Consider “endogenous SGF29 (from UniProt Q96ES7 1-293)”, for which, in assay [1], the binding entry is “binds”.

B1: mediator of RNA polymerase II transcription subunit 4 (MED4) (protein, UniProt Q9NPJ6 1-270)
chain: MAASSSGEKEKERLGGGLGVAGGNSTRERLLSALEDLEVLSRELIEMLAISRNQKLLQAGEENQVLELLIHRDGEFQELMKLALNQGKIHHEMQVLEKEVEKRDSDIQQLQKQLKEAEQILATAVYQAKEKLKSIEKARKGAISSEEIIKYAHRISASNAVCAPLTWVPGDPRRPYPTDLEMRSGLLGQMNNPSTNGVNGHLPGDALAAGRLPDVLAPQYPWQSNDMSMNMLPPNHSSDFLLEPPGHNKENEDDVEIMSTDSSSSSSESD
B1: the binding result with SGF29-C-D194A (human) is on record as “binds”; in the assay with SGF29-C-WT (human), “binds”; in assay [4] it was “no binding”; in assay [5], “binds”.
